Test results reported in PubChem BioAssay AID488969 (Vanderbilt High Throughput Screening Facility, 2010).
The full ranking holds about 110,000 compounds; the median of “z-score” is about -0.1, and the highest 2% start at about 2. The list shows a part of the results. The source made the active and inactive calls.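 Rule for the calls: active = z-score in the third read window above 3 or below -3; inactive = the rest.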

Target: Metabotropic glutamate receptor 8 (Rattus norvegicus) (UniProt P70579)
Assay: rat mGluR8 modulators via GIRK flux, primary screen, cell-based, thallium flux, HTS (AID 488969)
Conditions: HEK293 rat mGluR8, GIRK (G protein-gated inwardly rectifying potassium channel) thallium flux, FluoZin2; at 10 µM; stronger effect = higher value; submaximal glutamate (EC20) added with thallium

Chain of UniProt P70579 (P70579 whole entry, looked up): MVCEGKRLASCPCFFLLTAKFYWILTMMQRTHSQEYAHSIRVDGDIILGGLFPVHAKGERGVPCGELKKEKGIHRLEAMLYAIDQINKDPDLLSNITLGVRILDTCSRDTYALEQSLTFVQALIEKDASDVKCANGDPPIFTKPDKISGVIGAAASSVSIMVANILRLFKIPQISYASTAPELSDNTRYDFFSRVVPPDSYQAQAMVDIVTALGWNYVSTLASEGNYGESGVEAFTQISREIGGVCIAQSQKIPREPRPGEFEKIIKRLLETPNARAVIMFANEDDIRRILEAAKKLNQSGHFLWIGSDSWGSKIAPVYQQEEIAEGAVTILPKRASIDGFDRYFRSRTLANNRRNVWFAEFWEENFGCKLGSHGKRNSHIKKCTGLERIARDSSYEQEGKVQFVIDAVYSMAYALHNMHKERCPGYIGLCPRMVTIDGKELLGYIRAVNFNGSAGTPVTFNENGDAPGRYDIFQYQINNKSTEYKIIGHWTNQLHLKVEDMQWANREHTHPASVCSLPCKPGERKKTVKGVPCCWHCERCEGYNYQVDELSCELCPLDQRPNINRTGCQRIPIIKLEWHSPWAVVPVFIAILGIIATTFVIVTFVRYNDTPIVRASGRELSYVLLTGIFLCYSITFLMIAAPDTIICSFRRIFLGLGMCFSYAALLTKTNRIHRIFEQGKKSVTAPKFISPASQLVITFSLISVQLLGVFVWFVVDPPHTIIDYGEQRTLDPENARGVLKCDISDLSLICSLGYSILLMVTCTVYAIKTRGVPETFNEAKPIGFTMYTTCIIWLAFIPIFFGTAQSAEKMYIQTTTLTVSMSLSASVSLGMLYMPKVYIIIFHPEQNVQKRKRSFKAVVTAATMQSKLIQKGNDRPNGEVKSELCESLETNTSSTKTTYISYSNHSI

Point of comparison: `Cc1cc(C)nc(N2CCC(C(=O)N3CCN(c4cc(Cl)ccc4C)CC3)CC2)n1`, z-score 0.224. Against it:
- Clc1cc(NCc2cccs2)ccc1N1CCOCC1 — lower, -0.0119
- CCN(CC)S(=O)(=O)c1cccc(NC(=O)COC(=O)CCc2nc3ccccc3s2)c1 — lower, -0.451
- Cc1csc(SCC(=O)Nc2cc(S(=O)(=O)N3CCCC3)ccc2Cl)n1 — lower, -0.654
- Cn1cnnc1SCC(=O)Nc1cccc(C(=O)O)c1 — higher, 0.58
- CN(C)CCCNC(=O)c1cc(Br)ccc1Cl — lower, -0.48
- Cn1c(=O)c2c(SCC(N)=O)nc(CC(C)(C)C)nc2n(C)c1=O — lower, -1.33
- Cc1cccc(NC2=C(NC(=O)c3ccccc3)C(=O)c3ccccc3C2=O)c1 — lower, -0.389
- CCOC(=O)CCCCC(=O)c1[nH]c(=O)[nH]c1Cn1cnc2ccccc21 — lower, -0.0693
- CSc1c(C#N)c(N)c(C#N)c2c1COC(C)(C)C2 — lower, -1.03
- CCN(CCCNC(=O)c1[nH]c(C)c(C(C)=O)c1C)c1cccc(C)c1 — lower, -1.09
- Cc1ccc(-c2nnc(N3CCCCC3)c3ccccc23)cc1S(=O)(=O)N(C)C — lower, -0.192
- COc1ccc(S(=O)(=O)Nc2cc(C)ccc2OC)cc1C — lower, -0.396
- COc1ccc(-n2c3c(cc(C(=O)N4CCN(CCO)CC4)c2=O)C(=O)CC(C)(C)C3)cc1 — lower, 0.0856
- COc1ccccc1C(=O)/C=C/c1ccc(N2CCCCC2)c([N+](=O)[O-])c1 — higher, 0.232
- Cc1cnnc2ccc3c(no[n+]3[O-])c12 — higher, 0.292
- Cc1ccc(-c2nnn(CC(=O)N3CCN(c4ccccc4)CC3)n2)o1 — lower, 0.183
- Cc1ccc(CC23CN4CCN(CC(C4)C2O)C3)c(C)c1 (centres undefined) — higher, 0.287
- CCOC(=O)N1CCC(Nc2ncnc3c2cnn3-c2ccc(Cl)cc2)CC1 — lower, -0.158
- CCC(CC)C1C(C#N)=C(N)Oc2n[nH]c(-c3ccccc3)c21 (centres undefined) — lower, -0.557
- CCC(=O)Nc1nnc(SCC(=O)Nc2ccc(F)cc2)s1 — lower, -0.976
- Cc1ccccc1N(CC(=O)NCc1ccncc1)S(C)(=O)=O — lower, 0.0408
- CN(c1ccccc1)S(=O)(=O)c1ccc(NC(=O)C2CCCCC2C(=O)O)cc1 (centres undefined) — lower, -0.0354
- Nc1nc(N)nc(-c2ccc(Oc3ccccc3)cc2)n1 — lower, -0.35
- CC1=C(C(N)=O)C(c2ccc(Cl)cc2Cl)n2ncnc2N1 (centres undefined) — higher, 0.288
- Cn1c(=O)[nH]c(NC2CCCCC2)c(N=O)c1=O — lower, -0.267
- COc1ccc(NC(=O)c2cncc(Br)c2)c(S(=O)(=O)N2CCOCC2)c1 — higher, 0.95
- O=C(CN1CCN(c2ccccc2)CC1)Nc1ccc(OCc2ccccc2)cc1 — lower, 0.0718
- Cc1ccc(NC(=O)CN2C(=O)/C(=C3\SC(=S)N(C4CCS(=O)(=O)C4)C3=O)c3ccccc32)cc1 (centres undefined) — higher, 0.389
- CCN(CC)S(=O)(=O)c1ccc(-c2nnc(SCC(C)=O)o2)cc1 — lower, 0.094
- CCOC(=O)c1oc2ccc(S(=O)(=O)n3nc(-c4ccccc4)cc3N)cc2c1C — lower, -0.0165
- CCOc1nc(-c2ccc(C)cc2)ccc1-c1noc(-c2cccnc2)n1 — higher, 0.44
- CCOC(=O)C1(CCC(C)C)CC(CSc2nc3ccccc3[nH]2)OC1=O (centres undefined) — higher, 0.321
- O=C(O)CNc1nc(Cl)ccc1[N+](=O)[O-] — lower, 0.0424
- CCCCOC(=O)Nc1ccc(N2CCOCC2)cc1 — lower, -0.696
- COc1cccc(C(=O)N(Cc2cc3cc(C)ccc3[nH]c2=O)C(C)C)c1 — lower, -0.718
- COc1ccc(-n2c(=O)c3c4c(sc3n3cnnc23)CC(C)CC4)cc1 (centres undefined) — lower, -1.74
- CCCCOC(=O)C1=C(C)Nc2ncnn2C1c1cccc(OC)c1OC (centres undefined) — lower, -0.995
- Cc1cc(C)nc(SCc2cc(=O)c(OC(=O)c3ccc(S(=O)(=O)N(C)C)cc3)co2)n1 — lower, -0.616
- CC(C)=CCC/C(C)=C/CC(C)(C)CNCCN1CCNCC1 — lower, -0.0374
- Cc1ccc2[nH]c(=O)c(C(c3nnnn3Cc3ccccc3)N3CCc4ccccc43)cc2c1 (centres undefined) — lower, -0.323
- CCOC(=O)C1CCN(C(=O)c2cccnc2Cl)CC1 — lower, 0.209
- CCc1c(O)cc2n(c1=O)-c1ccccc1C2(C)C — lower, -0.409
- COc1ccc(-c2cc(C(=O)OCC(=O)c3ccc(C)c([N+](=O)[O-])c3)c3ccccc3n2)cc1 — lower, -0.11
- COc1ccc(-c2cc(C(=O)N/N=C/c3ccc4c(c3)OCO4)c3ccccc3n2)c(OC)c1 — lower, -0.128
- Cc1cccc(N(CC(N)=O)S(C)(=O)=O)c1C — lower, -0.72
- CCc1nnc(SCc2ccc(CSc3nnc(CC)n3N)cc2)n1N — lower, 0.166
- COc1ccc(Cl)c(Cn2c(NCc3ccco3)nc3c2c(=O)n(C)c(=O)n3C)c1 — lower, -0.0771
- O=[N+]([O-])c1cc(-n2cnnn2)ccc1N1CCC(Cc2ccccc2)CC1 — lower, -0.164
- CCCN1Cc2cccc(C(=O)Nc3ccc(-c4nc5ccccc5[nH]4)cc3)c2C1=O — lower, -0.0402
- O=C(O)c1cccc(-n2nnnc2SCc2ccccn2)c1 — lower, 0.00567
- CCOC(=O)c1sc(NC(=O)c2ccc(S(=O)(=O)N3CCOCC3)cc2)cc1C — lower, -0.134
- CCCCCCCC(=O)N/N=C(/C)c1c(O)cc(C)oc1=O — lower, 0.177
- O=C(NN=C1CCCCCCCCCCC1)c1cccc(S(=O)(=O)N2CCOCC2)c1 — lower, -0.137
- CCOC(=O)c1cnn(-c2cc(Oc3ccccc3)ncn2)c1N — lower, -0.0804
- Cc1cc(OCC(=O)Nc2ccc3c(c2)OCCO3)cc(C)c1Cl — higher, 0.295
- O=C(NCc1ccccn1)c1ccc(COc2ccc(Cl)cc2)o1 — lower, -0.811
- CCOP(=O)(c1ccc(N(C)C)cc1)C(O)c1ccccc1OC (centres undefined) — lower, 0.0739
- C/C(CC(=O)NCCCN1CCOCC1)=N\NC(=O)COc1ccc(C)cc1 — lower, -0.624
- CN(C)CCCNC(=O)Cc1ccc(Br)cc1 — higher, 1.07
- COc1ccc(OC)c(C2=NOC(C(=O)NCCN3CCOCC3)C2)c1 (centres undefined) — lower, 0.0749
- CCCN(CCC)CCCNc1ccc2nnc(-c3ccc(F)cc3)n2n1 — higher, 0.263
- COCC(COCCCNC(=O)Nc1ccc(Br)cc1)OC (centres undefined) — lower, 0.0356
- O=S(=O)(NCc1csc(-c2cccnc2)n1)c1ccc(Cl)s1 — lower, 0.124
- O=C(COC(=O)CNS(=O)(=O)c1ccc(F)c(F)c1F)Nc1ccc(OC(F)F)cc1 — higher, 0.677
- Cc1cc(C)cc(-n2nnnc2-c2cn(C)nc2C(F)(F)F)c1 — lower, -0.187
- COc1cccc(-n2nnc3c(=O)n(Cc4cccc(F)c4)cnc32)c1 — lower, -0.071
- CC1(C)CC(=O)C2=C(C1)NCN(Cc1ccc3c(c1)OCO3)C2 — lower, 0.218
- Cc1ccccc1NC(=O)c1c(C)nn(-c2ccccc2)c1Cl — lower, -0.279
- Cc1c(C)c2cc(Cl)c(OCc3nn[nH]n3)cc2oc1=O — lower, -0.0346
- O=C(N/N=C/C(Cl)=C/c1ccccc1)c1cnccn1 — lower, 0.219
- CC(C)(C)NC(=O)Cn1nnc(-c2ccccc2NC(=O)c2ccco2)n1 — lower, 0.169
- Cc1cccc(Nc2ccccc2C(=O)NCc2ccco2)c1C — lower, -0.199
- O=C(CSc1nnc(-c2ccc3c(c2)OCO3)o1)Nc1ncc(Cl)cc1Cl — lower, -0.299
- Cn1c(=O)n(CC(=O)N2CCN(c3nnc(-c4ccccc4)c4ccccc34)CC2)c2ccccc21 — lower, 0.153
- Cc1ccc(-c2nnc3ccc(SCC(=O)NCc4ccco4)nn23)cc1 — lower, -0.802
- CCCn1nc2cc(C(=O)NCc3ccc(OC(F)(F)F)cc3)ccc2c1OCC — lower, -0.872
- COc1ccc2c(CSc3nnc(-c4cccnc4)n3-c3ccccc3F)cc(=O)oc2c1 — lower, -0.209
- c1ccc(COc2ccc(OCCn3cncn3)cc2)cc1 — lower, -0.123
- CCc1nc(SC)[nH]c(=O)c1C — lower, -0.134
- CC1CCN(C(=O)c2ccc3c(c2)OCCO3)CC1 — higher, 0.598
- COc1ccccc1C(=O)NC(=S)/C=C1/N(C)c2ccccc2C1(C)C — lower, -1.92
- O=C1c2cccc3c(N4CCCCC4)ccc(c23)C(=O)N1c1ccc(Cl)cn1 — lower, -2.33
- CCn1nc(CC(=O)Nc2nnc(CC(=O)N3CCCC3)s2)c2ccccc2c1=O — lower, -0.065
- O=C(CCCOc1ccc(Cl)cc1Cl)N1CCCc2ccccc21 — lower, -0.0365
- O=C(C1CCN(S(=O)(=O)Cc2ccccc2)CC1)N1CCN(c2ncccn2)CC1 — lower, -0.444
- CCn1c(SCC(=O)N/N=C/C=C/c2ccco2)nnc1-c1ccccc1 — lower, -0.239
- CCc1ccc(NC(=O)N(CCN(C)C)C(C)c2cccnc2)cc1 (centres undefined) — lower, -0.594
- CN(CCC#N)C(=O)c1ccc(CNS(=O)(=O)c2ccc(F)cc2)cc1 — lower, 0.116
- Cc1cc[n+](CCC(=O)O)c2ccccc12 — lower, 0.137
- Cc1cccc(C)c1NC(=O)C1=C(O)c2ccccc2N(C)S1(=O)=O — lower, 0.0397
- O=C(C1CC(c2ccc(F)cc2)=NO1)N1CCCCC1 (centres undefined) — lower, -0.0299
- O=C(COc1ccccc1)NC1CCCc2ccccc21 (centres undefined) — lower, -0.169
- CCC12OC(=N)C(C#N)(C1C)C(C#N)(C#N)C(c1ccccc1)O2 (centres undefined) — lower, 0.027
- CC1CCN(S(=O)(=O)c2ccc(Oc3ccc([N+](=O)[O-])cc3)cc2)CC1 — lower, 0.112
- CC1=CC(C)(C)N(C(=O)CSc2nncn2C)c2ccccc21 — higher, 0.631
- N#CC(C(=O)NCCc1ccccc1)c1nc2ccccc2nc1N1CCCCC1 (centres undefined) — lower, -0.0219
- CCOC(=O)N1CCC(NC(=O)c2ccc3c(c2)N(C)CCS3)CC1 — lower, -0.163
- COc1cccc(OC)c1OCCCOc1ccc(C)cc1Br — lower, -0.324
- O=C(Cn1c2c(sc1=O)C1c3ccccc3OCC1CS2)Nc1ccc(Cl)c(Cl)c1 (centres undefined) — lower, -0.0375
- O=C(NCc1ccc(Cl)cc1)c1ccc(Br)o1 — lower, -0.241
- C(=N\Nc1nc(-c2ccccc2)cs1)/c1cccnc1 — lower, -0.215
- COC(=O)NNC(=O)/C=C/c1ccccc1 — lower, -0.0867
- Cc1ccccc1C(=O)Nc1ccc2c(C#N)c3nc4ccccc4nc3n2c1 — lower, -0.0106
- COc1ccc(C2C(C#N)=C(N)OC3=C2C(=O)CCC3)cc1Cn1cc([N+](=O)[O-])cn1 (centres undefined) — lower, -0.148
- O=C(c1cc2nc(C3CC3)cc(C(F)F)n2n1)N1CCOCC1 — lower, -0.285
- COc1ccc(-n2c(=O)cc(N3CCOCC3)[nH]c2=O)cc1 — higher, 0.418
- C=CCn1c(-c2ccc(OC)cc2)nc2ccccc21 — lower, -0.63

In the case of `CCCc1ccc(OCC(=O)NNC(=S)NC(=O)c2ccco2)cc1`, the z-score is reported as active: 5.78.
